# Inconclusive results and toxic doses are left out. A number of entries come with more than one value. Only these are listed. The source may hold further records. Results that share an entry differ for a reason that is not stated; some may be repeats, others may stem from another dose, organism or construct than stated.
# Test system: L1210 leukemia ip in BDF1 mice, survival T/C
# Experiment: NCI In Vivo Anticancer Drug Screen. Data for tumor model L1210 Leukemia (intraperitoneal) in B6D2F1 (BDF1) mice
# Details: vehicle: saline, higher = longer survival
SMILES,"T/C (endpoint: median survival time, dose: 25.0 mg/kg/injection, schedule: Q01DX017 (ip))","T/C (endpoint: mean survival time, dose: 16.0 mg/kg/injection, schedule: Q01DX009 (ip))"
CN(N=O)C(N)=O,105 % of control and 172 % of control,–
COC(=O)[C@@H](O)[C@](O)(CCC(C)C)C(=O)O[C@@H]1C(OC)=C[C@]23CCCN2CCc2cc4c(cc2[C@H]13)OCO4,–,110 % of control and 150 % of control

# Reference: PubChem BioAssay AID248 (DTP/NCI, 2004)
